{"source": "PubChem BioAssay (NCATS)", "note": "“And” between values parts separate entries of the source, which are not always exact repeats. Equal values may be shown once. Inconclusive results, whose numbers are uncertain, are shown with a selection of clear calls. Potencies of inconclusive entries are left out as doubtful fits. The source made the active and inactive calls. Calls come from the whole dose curve; as a rule, active = well fitted cell-killing curve with a large enough effect; inconclusive = small, poorly fitted or top-dose-only effect; inactive = no such curve, though single readings can be large or run the other way. Potency is the fitted concentration of half-maximal effect; tags give direction and shape of the fitted curve.", "data": [{"test": "qHTS of pediatric cancer cell lines to identify multiple opportunities for drug repurposing: Primary screen for OHS-50 cells (AID 1347103); note: nearly all actives have a fitted effect of over 40% in size", "details": "OHS-50 osteosarcoma viability, CellTiter-Glo luminescence, 48 h; activity change, negative = cytotoxic: at 57.3 µM (top of the series)", "from_the_text": "Drug repurposing or repositioning has been offered as a strategy for drug development in oncology programs. This approach has special potential for childhood cancers and other rare or orphan diseases, where the expected return on new drug development has been a disincentive to pharmaceuticals.\nIn this project we exploit the poly-pharmacology of drugs to discover new indications via phenotypic screening of a panel of 19 well-characterized cell lines derived from solid tumors seen in children and adolescents. The goal is to identify approved drugs with previously unrecognized anticancer properties that has the potential to reveal new mechanisms and biological processes involved in carcinogenesis or drug resistance. We employed a titration-based paradigm (quantitative high-throughput screening or qHTS), where all compounds were tested at multiple concentrations for their effect on cell viability. Concentration-response curves (CRCs) were derived directly from the primary screen, and both potency and efficacy values were used to identify compounds with robust bioactivity profiles. We screened the NIH Chemical Genomics Center (NCGC) Pharmaceutical Collection (NPC) and Mechanism Interrogation Plate (MIPE) small molecule collections of approved and investigational compounds against these cell lines; and measured metabolically active cells after 48 hours of compound treatment as a proxy for cell viability.\nAssay Submitter: Nathalia J. Martinez, National Center for Advancing Translational Sciences, National Institutes of Health, Rockville, MD, USA; email: natalia.martinez@nih.gov\n[1] Shen, M et al. Quantitative high-throughput phenotypic screening of pediatric cancer cell lines identifies multiple opportunities for drug repurposing. Oncotarget 2017 Dec 19;9(4):4758-4772. PMID 29435139.\nThe cells were obtained from University of North Carolina (UNC), Pediatric Preclinical Testing Program (PPT), and Coriell Institute (CI).\nqHTS cell viability assay:\nCells were assayed in growth media at a density of 500-1,000 cells/well. Five microliters of cells were dispensed into 1,536-well, white, solid-bottom, TC-treated plates (Greiner Bio One) using a multidrop dispenser and incubated at 37 degrees C, 5% CO2, under a humidified atmosphere for 5 hours. Twenty-three nanoliters of compounds and controls (neutral control DMSO or positive control bortezomib at final concentration of 2.3 µM) were subsequently transferred by Kalypsys pintool. For primary screens, the MIPE collection was tested at 11-point dilutions (final concentrations range from 0.78 nM to 46 µM) and the NPC collection at 8-point dilutions (final concentrations range from 0.59 nM to 46 µM). Compounds tested in follow-up screens were assayed at 11-point dilutions. Cells were incubated for 48 hours, followed by addition of 3 µL of CellTiter-Glo (Promega). After a 15 min incubation at room temperature, samples were analyzed for luminescence intensity using a ViewLux High-throughput CCD imager equipped with clear filters.", "values": [{"compound": "CCOC(=O)C1(c2ccccc2)CCN(CCC(C#N)(c2ccccc2)c2ccccc2)CC1", "Potency": "active: 12.3 µM"}, {"compound": "C[C@]12C=CC(=O)C=C1CC[C@@H]1[C@@H]2CC[C@@]2(C)[C@H]1CC[C@]2(C)O", "Potency": "inconclusive [cytotoxic, single point]"}, {"compound": "COc1ccc(N(C(=O)Oc2c(C)cccc2C)c2ccnc(Nc3ccc(N4CCN(C)CC4)cc3)n2)c(OC)c1", "Potency": "active: 9.68 µM"}, {"compound": "CC1OC(C)OC(C)O1", "note": "(stereo not given)", "Potency": "inconclusive [cytotoxic, single point]"}, {"compound": "CCN(CC)CCN1C(=O)CN=C(c2ccccc2F)c2cc(Cl)ccc21", "Potency": "inconclusive [cytotoxic, single point]"}, {"compound": "CCc1ccc(C2CCNCC2)cc1", "Potency": "inconclusive [cytotoxic, partial curve, poor fit]"}, {"compound": "C[C@]12Cc3cn[nH]c3C[C@@H]1CC[C@@H]1[C@H]2CC[C@@]2(C)[C@H]1CC[C@]2(C)O", "Potency": "inconclusive [cytotoxic, partial curve]"}, {"compound": "Cc1ncc2n1-c1ccc(Cl)cc1C(c1ccccc1F)=NC2", "Potency": "inconclusive [cytotoxic, single point]"}, {"compound": "O=P1(NCCCl)OCCCN1CCCl", "note": "(stereo not given)", "Potency": "inconclusive [cytotoxic, single point]"}, {"compound": "O=P1(N(CCCl)CCCl)NCCCO1", "note": "(stereo not given)", "Potency": "inactive"}, {"compound": "C[N+](C)(C)CCOC(=O)C(O)(c1ccccc1)c1ccccc1", "activity change, negative = cytotoxic": "inactive: -14.5%"}, {"compound": "CCO[C@H]1O[C@@H]2OC3(C)CC[C@H]4[C@H](C)CC[C@@H]([C@H]1C)[C@@]24OO3", "Potency": "active: 13.8 µM"}, {"compound": "Cc1nc(-c2ccc(-c3ccc(C(=O)N4CCc5cc6c(cc54)C4(CCN(C)CC4)CO6)cc3)c(C)c2)no1", "activity change, negative = cytotoxic": "inactive: 12.7%"}, {"compound": "CC(C)=CCOc1c2occc2cc2ccc(=O)oc12", "Potency": "inconclusive [cytotoxic, partial curve]"}, {"compound": "C[C@H]1CNCCc2ccc(Cl)cc21", "Potency": "inconclusive [cytotoxic, partial curve, poor fit]"}, {"compound": "CC(C)=C[C@@H]1[C@@H](C(=O)OCc2coc(Cc3ccccc3)c2)C1(C)C", "Potency": "inconclusive [cytotoxic, partial curve, poor fit]"}, {"compound": "O=C(Nc1ccccc1-c1ccc(Cl)cc1)c1cccnc1Cl", "Potency": "inconclusive [cytotoxic, partial curve, poor fit]"}, {"compound": "CC(Cc1ccccc1)NCCCCl", "note": "(stereo not given)", "activity change, negative = cytotoxic": "inactive: 6.48%"}, {"compound": "CN1[C@@H]2CC[C@H]1CC(OC(=O)c1cc(Cl)cc(Cl)c1)C2", "note": "(stereo not given in full)", "Potency": "inconclusive [cytotoxic, partial curve, poor fit]"}, {"compound": "C=C[C@@H]1CN2CCC1C[C@H]2[C@H](O)c1ccnc2ccccc12", "note": "(stereo not given in full)", "Potency": "inconclusive [cytotoxic, single point]"}, {"compound": "C[C@]12CC[C@H]3[C@@H](CCC4=CC(=O)CC[C@@H]43)[C@@H]1CC[C@@H]2O", "Potency": "inconclusive [cytotoxic, partial curve, poor fit]"}, {"compound": "C[C@@H]1[C@H](O)[C@@H](C)C=CC=CCCC=CC=CC=CC=C[C@H](O[C@H]2O[C@@H](C)[C@H](O)[C@@H](N)[C@@H]2O)CC2O[C@](O)(C[C@@H](O)[C@H](O)CC[C@@H](O)C[C@@H](O)C[C@@H](O)CC(=O)O[C@H]1C)C[C@H](O)[C@H]2C(=O)O", "activity change, negative = cytotoxic": "inactive: 5.48%"}, {"compound": "C=CC[C@]1(O)CC[C@H]2[C@@H]3CCC4=CC(=O)CCC4=C3C=C[C@@]21C", "Potency": "inconclusive [cytotoxic, partial curve]"}, {"compound": "O=C1C=CC[C@@H]2[C@H]3CCCN4CCC[C@@H](CN12)[C@@H]34", "Potency": "inconclusive [cytotoxic, full curve]"}, {"compound": "O=C(N[C@@H](COc1ccc2[nH]c(=O)[nH]c2c1)c1ccccc1)c1cccn(Cc2ccc(F)c(F)c2)c1=O", "Potency": "active: 30.6 µM"}, {"compound": "c1ccc(C2CC2)c(OCC2=NCCN2)c1", "Potency": "inconclusive [cytotoxic, partial curve, poor fit]"}, {"compound": "CCCCCCC(=O)CCCCCC/C=C/C[C@@H](O)[C@H](O)[C@@](N)(CO)C(=O)O", "Potency": "inconclusive [cytotoxic, partial curve, poor fit]"}, {"compound": "O=S(=O)(F)Cc1ccccc1", "activity change, negative = cytotoxic": "inactive: 10%"}, {"compound": "CCCN1CCO[C@@H]2c3cc(O)ccc3OC[C@@H]21", "activity change, negative = cytotoxic": "inactive: 91.5%"}, {"compound": "CC(C)(C)NCC(O)c1cc(Cl)c(N)c(C(F)(F)F)c1", "note": "(stereo not given)", "activity change, negative = cytotoxic": "inactive: -5.93%"}, {"compound": "C[C@@H]1C[C@@H]([C@H](O)CC2CC(=O)NC(=O)C2)C(=O)[C@@H](C)C1", "Potency": "active: 276 nM and active: 137 nM"}, {"compound": "O=c1[nH]c2ccc(Cl)cc2c(N[C@@H]2CN3CCC2CC3)c1-c1nc2ccccc2[nH]1", "Potency": "active: 0.109 µM"}, {"compound": "C=CCN1CC[C@]23CCCC[C@H]2[C@H]1Cc1ccc(O)cc13", "activity change, negative = cytotoxic": "inactive: -19.5%"}, {"compound": "CN(C)NC(=O)CCC(=O)O", "Potency": "inconclusive [cytotoxic, partial curve, poor fit]"}, {"compound": "CC(=O)Nc1ccc(OC[C@](C)(O)C(=O)Nc2ccc([N+](=O)[O-])c(C(F)(F)F)c2)cc1", "activity change, negative = cytotoxic": "inactive: -21.4%"}, {"compound": "CN(C)CCc1c[nH]c2ccccc12", "Potency": "inconclusive [cytotoxic, partial curve]"}, {"compound": "O=c1c(C2CC(c3ccc(-c4ccc(Br)cc4)cc3)Cc3ccccc32)c(O)sc2ccccc12", "note": "(stereo not given)", "Potency": "inconclusive [cytotoxic, single point]"}, {"compound": "O=C(O)C(=O)c1cn(Cc2ccccc2)c2ccc(-c3ccc(OC(F)(F)F)cc3)cc12", "Potency": "inconclusive [cytotoxic, partial curve]"}, {"compound": "CC(=O)N(C)c1cccc(-c2ccnc3c(C(=O)c4cccs4)cnn23)c1", "activity change, negative = cytotoxic": "inactive: 26%"}, {"compound": "C[C@H]1[C@@H]2Cc3ccc(O)cc3[C@@]1(C)CCN2C", "Potency": "inconclusive [cytotoxic, partial curve]"}]}]}
